Numbering of substitutions follows the chain as printed.
T1: human collagen type III (human, UniProt P02461 154-1221)
T1 construct: Bought; also called h Col III; type III collagen
T1 sequence (looked up): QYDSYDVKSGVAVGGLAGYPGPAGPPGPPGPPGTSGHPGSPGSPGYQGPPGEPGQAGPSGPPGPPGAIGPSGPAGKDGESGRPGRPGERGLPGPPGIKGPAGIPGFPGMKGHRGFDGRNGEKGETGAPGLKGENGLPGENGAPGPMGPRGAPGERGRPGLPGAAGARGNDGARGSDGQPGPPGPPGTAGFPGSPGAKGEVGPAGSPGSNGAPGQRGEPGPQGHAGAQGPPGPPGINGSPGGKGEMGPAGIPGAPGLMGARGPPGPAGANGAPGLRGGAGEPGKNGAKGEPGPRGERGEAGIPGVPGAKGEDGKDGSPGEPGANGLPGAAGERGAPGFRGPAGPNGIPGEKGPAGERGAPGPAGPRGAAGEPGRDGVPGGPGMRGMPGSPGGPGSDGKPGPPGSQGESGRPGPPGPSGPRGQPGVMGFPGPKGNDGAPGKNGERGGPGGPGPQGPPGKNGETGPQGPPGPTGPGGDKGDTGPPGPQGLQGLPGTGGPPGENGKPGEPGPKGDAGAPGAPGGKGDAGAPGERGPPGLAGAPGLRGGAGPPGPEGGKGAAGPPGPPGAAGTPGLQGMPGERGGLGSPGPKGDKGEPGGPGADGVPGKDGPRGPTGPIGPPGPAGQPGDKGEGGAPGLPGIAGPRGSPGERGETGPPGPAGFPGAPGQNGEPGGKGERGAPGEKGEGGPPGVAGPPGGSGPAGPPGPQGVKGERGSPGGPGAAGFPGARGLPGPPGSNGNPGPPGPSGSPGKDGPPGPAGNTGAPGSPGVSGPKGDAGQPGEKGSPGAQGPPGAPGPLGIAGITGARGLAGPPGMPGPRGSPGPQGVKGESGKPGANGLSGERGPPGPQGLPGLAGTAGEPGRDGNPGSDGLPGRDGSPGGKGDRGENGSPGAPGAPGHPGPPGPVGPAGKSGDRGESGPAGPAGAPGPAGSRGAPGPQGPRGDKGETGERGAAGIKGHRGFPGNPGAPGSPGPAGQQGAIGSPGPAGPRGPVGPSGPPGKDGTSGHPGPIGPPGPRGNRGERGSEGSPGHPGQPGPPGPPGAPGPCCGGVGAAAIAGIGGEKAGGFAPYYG

B1: CID 212705 (SEQ ID NO: 40), dimer of SEQ ID NO: 15 (designed binder)
chain: IAAKFDEAQQAADKEILHLPNLTEQQRNYFRQWLRDDPSVSPTVLGTAQQLNDSQAPKIAAKFDEAQQAADKEILHLPNLTEQQRNYFRQWLRDDPSVSPTVLGTAQQLNDSQAPKSAWSHPQFEK
notes: not shown: C-terminal Strep-tag (detected with anti-StrepTag antibody)
B2: CID 212704 (SEQ ID NO: 42), tetramer of SEQ ID NO: 15 (designed binder)
chain: IAAKFDEAQQAADKEILHLPNLTEQQRNYFRQWLRDDPSVSPTVLGTAQQLNDSQAPKIAAKFDEAQQAADKEILHLPNLTEQQRNYFRQWLRDDPSVSPTVLGTAQQLNDSQAPKGGGSIAAKFDEAQQAADKEILHLPNLTEQQRNYFRQWLRDDPSVSPTVLGTAQQLNDSQAPKIAAKFDEAQQAADKEILHLPNLTEQQRNYFRQWLRDDPSVSPTVLGTAQQLNDSQAPKSAWSHPQFEK
notes: as for B1
B3: 209130 (SEQ ID NO: 27) (designed binder)
chain: IAAKFDEAQIAAFWEIYHLPNLTEEQRTAFIWSLYDDPSVSLEVLGEAQKLNDSQAPKIAAKFDEAQQAAFYEILHLPNLTEQQRNYFIQWLRDDPSVSPTVLGTAQQLNDSQAPK
notes: also called CID 209130; not shown: C-terminal Strep-tag from the expression vector
B4: 211138 (SEQ ID NO: 34) (designed binder)
chain: B3 chain with I10Y, W14Y, Y17W, T28E, W32A, Y35A
notes: also called CID 211138; not shown: C-terminal Strep-tag from the expression vector

Assays:
human collagen type III = biological target: T1, human collagen type III; test: ELISA, h Col III coated on the plate, A 450-600 nm
Procedure: (§1) High binding plates (Greiner, 781061) were immobilized with 2.5 μg/ml recombinant human collagen type II (h Col II, Chondrex, CHX-20051), rabbit collagen type II (rbCol II, prepared from rabbit eyes), porcine collagen type II (p Col II, prepared from porcine eyes), human collagen type I, (h Col I, Sigma, C5483-1MG), human collagen type V (h Col V, Abcam, ab7537), human collagen type III (h Col Ill, Abcam, ab7535) and 67B89 (domain of fibronectin, produced in E. coli) respectively over night at 4° C. ELISA-plates were washed 3 times with PBST (PBS+ 0.1% Tween) and blocked with 3% BSA/0.5% Tween/PBS 2 h at RT. […] Plates were washed with PBST and incubated with biotinylated anti-StrepTag-ab (Antikörper-online, ABIN1573895) with a dilution of 1:10.000 for 1 h at rt. The binding was visualized with a-rabbit-IgG-HRP (Sigma, A9169) with a dilution of 1:10.000 and as substrate TMB Plus von KEM EN TEC Diagnostic, Kat-Nr. 4395.
(§2) Results. ELISA analysis clearly confirms the specific binding to type II collagen. […] No unspecific binding to type I collagen, type III collagen, type V collagen or to a domain of fibronectin (67B89) was detected (FIG. 2).

[1] = biological target: T2, 67B89 (domain of fibronectin) (UniProt P02751 1089-1540, limits assumed); test: ELISA, 67B89 coated on the plate, A 450-600 nm
T2 construct: domain: EDB (67B89); Unrelated control protein; also called fibronectin domain EDB (67B89); extradomain B of fibronectin
Procedure: as §1, §2

rabbit collagen type II = biological target: T3, rabbit collagen type II (rabbit); test: ELISA, collagen coated on the plate, dilution series of the binder, detection via StrepTag, A 450-600 nm
T3 construct: Prepared from rabbit eyes; also called rbCol II
Procedure: as §1, §2

porcine collagen type II [2] = biological target: T4, porcine collagen type II (porcine); test: as above
T4 construct: Prepared in house from pig eyes; also called p Col II; porcine type II collagen
Procedure: as §1, §2

porcine collagen type II [3] = biological target: T4, porcine collagen type II; test: ELISA (KD determination by ELISA, Example 5)

T2 sequence (P02751 1089-1540 limits assumed): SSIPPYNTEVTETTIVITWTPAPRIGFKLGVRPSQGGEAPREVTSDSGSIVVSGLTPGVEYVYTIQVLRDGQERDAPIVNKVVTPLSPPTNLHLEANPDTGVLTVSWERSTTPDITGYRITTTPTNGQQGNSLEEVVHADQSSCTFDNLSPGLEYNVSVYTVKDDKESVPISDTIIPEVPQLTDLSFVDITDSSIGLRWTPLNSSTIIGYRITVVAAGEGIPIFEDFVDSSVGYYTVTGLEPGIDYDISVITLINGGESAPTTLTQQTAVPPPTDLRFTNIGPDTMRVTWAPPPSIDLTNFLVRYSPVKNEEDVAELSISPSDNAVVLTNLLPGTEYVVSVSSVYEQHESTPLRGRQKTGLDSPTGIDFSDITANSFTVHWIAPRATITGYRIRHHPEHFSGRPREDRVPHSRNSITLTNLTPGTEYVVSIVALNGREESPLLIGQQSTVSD

| Binder | binding result (human collagen type III) | binding result [1] | Kd (rabbit collagen type II) | Kd (porcine collagen type II [2]) | Kd (porcine collagen type II [3]) |
| --- | --- | --- | --- | --- | --- |
| B1 | no binding (tested: 10000 nM) | no binding (tested: 10000 nM) | 66.7 nM | 64.5 nM |  |
| B2 | no binding (tested: 100 nM) | no binding (tested: 100 nM) | 0.3 nM | 0.17 nM |  |
| B3 |  |  |  |  | 110 nM |
| B4 |  |  |  |  | 810 nM |

— patent US20230416345A1 (NAVIGO PROTEINS, published 2023)
